Measurements taken from PubChem BioAssay AID1468 (National Center for Advancing Translational Sciences (NCATS), 2008).
Hit rate of the full screen: of about 280,000 compounds, about 1,100 (0.39%) were called active. The inconclusive results got no clear call from the source; some entries with a clear call stand among them for comparison. Calls come from the whole dose curve; as a rule, active = well fitted inhibition curve with a large enough effect; inconclusive = small, poorly fitted or top-dose-only effect, or effect the other way; inactive = flat fitted curve, though single readings scatter. Potencies of inconclusive entries are left out as doubtful fits.

The molecules below were run against Microtubule-associated protein tau (Homo sapiens) (UniProt P10636) (assay: qHTS for Inhibitors of Tau Fibril Formation, Fluorescence Polarization). Conditions: K18 P301L tau heparin fibrillization, Alexa594 FP, 6 h; series mostly up to 57.7 µM; activity, negative = inhibition: at the top concentration.
UniProt P10636, sequence (P10636 whole entry, looked up): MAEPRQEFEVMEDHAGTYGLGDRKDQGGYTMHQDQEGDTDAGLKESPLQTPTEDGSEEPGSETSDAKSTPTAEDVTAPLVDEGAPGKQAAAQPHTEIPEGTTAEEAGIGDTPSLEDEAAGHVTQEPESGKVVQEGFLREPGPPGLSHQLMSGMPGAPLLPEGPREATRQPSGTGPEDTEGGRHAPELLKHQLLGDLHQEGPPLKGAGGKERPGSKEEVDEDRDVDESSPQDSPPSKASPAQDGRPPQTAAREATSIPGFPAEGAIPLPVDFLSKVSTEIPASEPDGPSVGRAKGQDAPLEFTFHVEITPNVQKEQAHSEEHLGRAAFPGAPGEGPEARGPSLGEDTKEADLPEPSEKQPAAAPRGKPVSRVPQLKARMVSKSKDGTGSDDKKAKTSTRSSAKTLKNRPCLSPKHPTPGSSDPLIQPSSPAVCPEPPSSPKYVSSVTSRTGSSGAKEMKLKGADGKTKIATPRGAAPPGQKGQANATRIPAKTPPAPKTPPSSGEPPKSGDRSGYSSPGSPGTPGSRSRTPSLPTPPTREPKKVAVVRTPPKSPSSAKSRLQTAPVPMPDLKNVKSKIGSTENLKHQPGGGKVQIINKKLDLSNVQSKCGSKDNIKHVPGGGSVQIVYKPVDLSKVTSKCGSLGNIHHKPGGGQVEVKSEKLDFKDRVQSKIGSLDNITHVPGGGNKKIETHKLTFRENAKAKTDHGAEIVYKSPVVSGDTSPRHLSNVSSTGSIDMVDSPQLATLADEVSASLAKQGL
Outline: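 FP of Alexa 594-tau after heparin (20 uM) induction. Substrate: human K18 P301L, 15 uM unlabeled, 0.24 uM labeled. Buffer 100 mM sodium acetate pH 7. 6 hr, 37 C.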
% is set by controls: 0 for no effect and ±100 for the full control effect; potency is the fitted concentration of half-maximal effect; tags give direction and shape of the fitted curve.
Note: nearly all actives have a fitted effect of over 55% in size.

Row | SMILES | activity, negative = inhibition | Potency
1 | O=C(NNc1ccc([N+](=O)[O-])cc1)C1C2CCCCC21 (stereo not drawn) | inactive: -10.3% | 
2 | COc1ccc2oc(=O)c(-c3csc(Nc4cccc(O)c4)n3)cc2c1 | inactive: -3.87% | 
3 | COc1ccc(S(=O)(=O)Nc2nnc(C(C)C)s2)cc1 | inactive: -6.17% | 
4 | COc1ccc(NC(=O)Nc2nnc(N3CCCCC3C)s2)cc1OC (stereo not drawn) |  | inconclusive [activator, partial curve]
5 | Cc1nc(Oc2ccccc2C)c2oc3ccccc3c2n1 | inactive: -13.6% | 
6 | CCOC(=O)CC1=CC(C)(CC(=O)OCC)C(C#N)(C#N)C(N)=C1C#N (stereo not drawn) |  | inconclusive [inhibitor, partial curve]
7 | CNC(=O)c1sc2nc(-c3ccc(OC)cc3)cn2c1C | inactive: -0.707% | 
8 | Cc1cccc(Nc2nc(C)nc(N)c2S(=O)(=O)c2ccccc2)c1 |  | inconclusive [inhibitor, full curve, poor fit]
9 | Cc1ccc2[nH]c(=O)cc(C(=O)OC(C)C)c2c1 |  | inconclusive [inhibitor, single point]
10 | Cc1nnc(SCC(=O)c2ccc(Cl)cc2)n(N)c1=O |  | inconclusive [inhibitor, partial curve]
11 | Cc1ccc(NC(=O)C2c3ccccc3Oc3ccccc32)nc1 |  | inconclusive [inhibitor, single point]
12 | COc1ccc(C(=O)N2CC(=O)Nc3ccc(C)cc3C2c2ccccc2)cc1OC (stereo not drawn) | inactive: -0.141% | 
13 | COc1cc(/C=C2\COC/C(=C\c3ccc(O)c(OC)c3)C2=O)ccc1O |  | inconclusive [inhibitor, partial curve]
14 | C=C(C)C(=O)Nc1cccc(C2=NOC3(C2)C[C@@H](C(N)=O)N(C(=O)C(=C)C)C3)c1 (stereo partly drawn) | inactive: -1.02% | 
15 | CNCc1ccccc1Sc1ccc(O)c(O)c1 |  | active: 8.91 µM
16 | CCCc1cc(=O)[nH]c(SC(CC)C(=O)Nc2ccccc2C#N)n1 (stereo not drawn) | inactive: -1.97% | 
17 | COc1ccc(C2=NN(S(C)(=O)=O)C(c3cn(-c4ccccc4)nc3-c3cccs3)C2)cc1 (stereo not drawn) |  | active: 20 µM
18 | Cc1ccc(-c2nc3ccccn3c2Nc2ccc3c(c2)OCCO3)s1 |  | inconclusive [activator, partial curve]
19 | COc1cccc(-c2ccnc3c(-c4ccc(F)cc4)c(C)nn23)c1 |  | inconclusive [inhibitor, partial curve]
20 | Cc1[nH]n(-c2ccccc2)c(=O)c1C(C[N+](=O)[O-])c1ccc(Br)cc1 (stereo not drawn) | inactive: -0.46% | 
21 | C=C1CCC2[C@](C)(CO)C(O)CC[C@]2(C)C1C/C=C1/C(=O)OCC1O (stereo partly drawn) | inactive: -9.73% | 
22 | Cc1nn2c(=O)cc(COC(=O)c3cccc(NC(=O)COc4ccc(C)c(C)c4)c3)nc2s1 | inactive: 4.29% | 
23 | Cc1c(-c2nsc(NC(=O)c3cccs3)n2)nnn1-c1ccc(Cl)cc1 |  | inconclusive [inhibitor, single point]
24 | O=C(COC(=O)c1ccc(Br)cc1)NCc1ccccc1 |  | inconclusive [inhibitor, single point]

Row | SMILES | activity, negative = inhibition | Potency
25 | OCc1cn(-c2ccccc2)nc1-c1ccc(-c2nn(-c3ccccc3)cc2CO)cc1 |  | inconclusive [inhibitor, partial curve]
26 | Clc1ccc(-c2csc3ncnc(Cl)c23)cc1 |  | inconclusive [inhibitor, single point]
27 | COc1ccc2ccccc2c1-c1c(OC)ccc2ccccc12 |  | inconclusive [inhibitor, full curve, poor fit]
28 | Cc1cc(C)c([N+](=O)[O-])cc1NC(=O)CCSc1ccccc1Cl |  | inconclusive [inhibitor, single point]
29 | Cc1cc(C)n(C(=O)CNC(=O)COc2ccccc2)n1 | inactive: 4.94% | 
30 | COc1ccc(NC(=O)c2cc3c(=O)n(C)c4ccccc4c3s2)cc1Cl |  | inconclusive [inhibitor, partial curve]
31 | O=C(O)CSc1c(-c2ccccc2)c2cc(Cl)ccc2[nH]c1=O |  | inconclusive [activator, single point]
32 | CC(=O)OCCn1c(Br)nc2c1c(=O)[nH]c(=O)n2C |  | inconclusive [inhibitor, single point]
33 | N#CCc1ccc(C(=O)c2ccccc2F)s1 |  | inconclusive [activator, single point]
34 | COc1ccc(NC(=O)Cn2nnc(-c3ccccc3NC(=O)c3cccs3)n2)cc1 |  | inconclusive [inhibitor, partial curve]
35 | O=C(/C=C/c1ccco1)NC(=S)Nc1ccccc1N1CCOCC1 | inactive: -2.73% | 
36 | Cc1csc2nc(COc3ccc(NC(=O)COc4ccccc4F)cc3)cc(=O)n12 | inactive: 1.87% | 
37 | O=C1CC(c2ccccc2)Cc2nc(NC3CC3)ncc21 (stereo not drawn) |  | inconclusive [inhibitor, single point]
38 | O=c1c2oc3nc4c(cc3c2ncn1CCCc1ccccc1)CCCC4 | inactive: -5.06% | 
39 | CC(C)(C)C1CCc2c(sc(NC(=O)Cn3nnc(-c4cccc(C(F)(F)F)c4)n3)c2C#N)C1 (stereo not drawn) |  | inconclusive [inhibitor, partial curve]
40 | Fc1ccc(Nc2nc3nonc3nc2Nc2cccc(C(F)(F)F)c2)cc1 |  | inconclusive [inhibitor, full curve]
41 | CC1=NC(=O)C(N=Nc2ccccc2)N1c1ccccc1 (stereo not drawn) |  | inconclusive [inhibitor, partial curve, poor fit]
42 | NCCCC(N)(C(=O)O)C(F)F (stereo not drawn) |  | inconclusive [inhibitor, single point]
43 | CCC(Sc1nc2c(sc3ccccc32)c(=O)n1CCCC(=O)NC1CCCC1)C(=O)Nc1cccc(OC)c1 (stereo not drawn) | inactive: -8.56% | 
44 | Cc1ccc(/C=[N+](\[O-])c2ccc(N(C)C)cc2)c2nsnc12 |  | active: 31.6 µM
45 | Cc1c(C(=O)Oc2ccc(-c3cnc4ccccc4n3)cc2)cccc1[N+](=O)[O-] |  | inconclusive [inhibitor, partial curve]
46 | CC(C)=C1C2CCC1C1C(=O)N(c3ccc4c(c3)OCO4)C(=O)C21 (stereo not drawn) | inactive: -12.6% | 
47 | CCCCCCCCCCCC1=C(O)C(=O)C=C(O)C1=O |  | active: 20 µM
48 | CCC(=O)N1CCc2cc(CNC(=O)Nc3ccccc3Cl)ccc21 | inactive: 1.87% | 
